In paper PMC4336329 (PLoS ONE, 2015):
In all, about 310,000 compounds went through this assay and about 2,200 (0.71%) showed an effect of 50% or more. The effect is printed as a negative number. The list shows a part of the results.

What follows are compounds tested against human ether-à-go-go-related gene (hERG) potassium channel (human, UniProt Q12809) (assay: primary screen, population patch clamp on CHO cells stably expressing hERG).
Sequence of human ether-à-go-go-related gene (hERG) potassium channel (Q12809 whole entry, looked up): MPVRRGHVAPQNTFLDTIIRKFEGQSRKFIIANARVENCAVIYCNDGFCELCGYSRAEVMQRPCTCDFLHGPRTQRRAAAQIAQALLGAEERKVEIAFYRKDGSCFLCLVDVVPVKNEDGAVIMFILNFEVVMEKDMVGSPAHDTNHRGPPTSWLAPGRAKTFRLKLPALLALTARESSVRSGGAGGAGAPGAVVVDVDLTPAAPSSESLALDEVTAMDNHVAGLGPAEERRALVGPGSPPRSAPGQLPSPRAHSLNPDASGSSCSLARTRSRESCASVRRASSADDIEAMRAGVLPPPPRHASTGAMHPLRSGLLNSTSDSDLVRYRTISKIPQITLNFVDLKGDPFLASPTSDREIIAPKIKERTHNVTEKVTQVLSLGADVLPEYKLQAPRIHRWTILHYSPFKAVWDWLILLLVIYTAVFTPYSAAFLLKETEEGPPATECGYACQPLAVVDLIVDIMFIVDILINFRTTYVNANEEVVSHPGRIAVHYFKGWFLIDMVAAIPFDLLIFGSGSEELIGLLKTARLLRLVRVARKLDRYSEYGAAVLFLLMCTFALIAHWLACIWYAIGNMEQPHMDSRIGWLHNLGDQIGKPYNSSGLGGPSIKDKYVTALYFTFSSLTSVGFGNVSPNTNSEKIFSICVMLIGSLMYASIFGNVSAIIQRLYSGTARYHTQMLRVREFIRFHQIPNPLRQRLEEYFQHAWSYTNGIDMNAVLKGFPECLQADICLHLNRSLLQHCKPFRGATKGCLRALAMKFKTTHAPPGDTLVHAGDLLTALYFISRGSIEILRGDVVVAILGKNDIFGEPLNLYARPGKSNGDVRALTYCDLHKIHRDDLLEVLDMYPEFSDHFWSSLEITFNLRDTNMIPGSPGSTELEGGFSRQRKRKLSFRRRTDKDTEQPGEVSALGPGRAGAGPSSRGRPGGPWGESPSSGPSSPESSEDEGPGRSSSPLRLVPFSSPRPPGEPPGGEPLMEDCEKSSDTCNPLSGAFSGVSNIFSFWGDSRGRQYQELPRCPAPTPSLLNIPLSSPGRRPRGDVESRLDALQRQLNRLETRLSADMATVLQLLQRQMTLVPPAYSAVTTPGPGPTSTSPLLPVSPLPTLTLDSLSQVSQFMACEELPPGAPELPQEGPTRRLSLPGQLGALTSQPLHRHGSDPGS

| Structure (SMILES) | hERG current change (%, negative = inhibition) at 1uM [%] |
| --- | --- |
| Cc1nn2c(COc3ccc(NC(=O)c4ccccc4Cl)cc3)nnc2c2ccccc12 | 4.43 |
| Cc1ccc(NC(=O)c2cc(Cl)ccc2[N+](=O)[O-])cc1C | 9.54 |
| CS(=O)(=O)c1ccc(S(=O)CC(=O)Oc2ccc(Cl)cc2)c([N+](=O)[O-])c1 (stereo not shown) | 13.1 |
| COC(=O)c1cc(OC)c(OC)cc1NC(=O)CSc1nnc(-c2cccnc2)n1C | -5.26 |
| Cc1ccc(Cn2nnc3c(=O)[nH]c(C4CCN(S(=O)(=O)c5ccc(S(=O)(=O)NC6CC6)cc5)CC4)nc32)cc1 | 8.19 |
| O=C(/C=C/c1ccc2c(c1)OCO2)c1c(O)n(CCC2=CCCCC2)c(=O)[nH]c1=O | 11 |
| COc1ccc(CCNC(=O)c2ccc3c(c2)NC(=O)CS3)cc1OC | 8.02 |
| CCCC[C@@H]1CNC(=O)C(=O)N1CCc1cc(C(F)(F)F)cc(C(F)(F)F)c1 | -3.32 |
| O=C(CCNC(=O)Cn1cnc2ccccc2c1=O)NCC1COc2ccccc2O1 (stereo not shown) | 6.38 |
| O=c1[nH]c(CSc2nc3ccccc3[nH]2)nc2c1cnn2-c1ccccc1 | -1.63 |
| COc1ccccc1/C=C/C=N/NC(=O)CC1C(=O)NN=C1C (stereo not shown) | 12.8 |
| CCc1ccccc1N(CC(=O)Nc1cccnc1)S(=O)(=O)c1ccccc1 | 10 |
| Cc1ccc(C)c(N2CCN(C(c3ccncc3)c3nnnn3Cc3ccccc3)CC2)c1.Cl (stereo not shown) | 5.53 |
| CC(=O)N1CCN(C(=O)c2cc(=O)c3ccccc3o2)CC1 | 22 |
| O=C(Cn1ccccc1=O)c1cccs1 | 10.2 |
| O=C(Cc1ccc(F)cc1)Nc1ccccc1N1CCCC1 | 11.3 |
| Cc1ccc(SCCNC(=S)Nc2cc(C)ccc2C)cc1 | 8.45 |
| O=C(Nc1cccc(Cl)c1)Nc1nc(-c2ccc(Cl)cc2)cs1 | 11.3 |
| Cc1cc2oc(=O)cc(CN3CCN(C/C=C/c4ccccc4)CC3)c2cc1O | -67.8 |
| O=C(OCCc1ccccc1)c1cc(O)c(O)c(O)c1 | 21.2 |
| O=C1NC(=S)N/C1=C/c1cccc2ccccc12 | 7.77 |
| O=C(NCc1cccs1)c1csc2ccccc12 | 13.4 |
| O=C(COC(=O)C1CCCCC1)Nc1ccc(N2CCCCC2)cc1 | 7.55 |
| Cc1ccc(S(=O)(=O)NCc2ccc(C(=O)NCCCN3CCC(Cc4ccccc4)CC3)cc2)cc1 | -52.4 |
| COc1ccc(N2CCN(CCNC(=O)Nc3ccc([N+](=O)[O-])cc3OC)CC2)cc1 | 12 |
| CCCCOc1ccc(C(=O)NCC(=O)N2CC=C(c3ccccc3)CC2)cc1 | 10.7 |
| O=C1CCC([N+](=O)[O-])C(c2ccc3c(c2)OCO3)N1 (stereo not shown) | -0.159 |
| CCC(=O)N1CCc2cc(S(=O)(=O)N3CCc4ccccc4C3)ccc21 | 6.48 |

| Structure (SMILES) | hERG current change (%, negative = inhibition) at 1uM [%] |
| --- | --- |
| Cc1cccc(N(C(=O)Cn2nnc(-c3ccccc3F)n2)C(C(=O)NC(C)(C)C)c2ccncc2)c1 (stereo not shown) | 17.7 |
| NC(=O)COC(=O)CNC(=O)c1sc2ccccc2c1Cl | 14.2 |
| COCCn1cnc2c1c(=O)n(CC(=O)OCC(=O)NCC(F)(F)F)c(=O)n2Cc1ccccc1 | 9.9 |
| O=C(O)c1cc(-c2cccs2)[nH]n1 | 12.3 |
| CCCCn1c(N)c(N(C(=O)CSc2nnnn2-c2ccccc2)C2CCCC2)c(=O)[nH]c1=O | 5.99 |
| COCCNCCCOc1ccc(Br)cc1Cl.O=C(O)C(=O)O | 0.786 |
| Cc1ccc(/C=N/N(Cc2ccccc2)c2ccccc2)o1 | 7.77 |
| Cc1ccnc(NC2OC(=O)c3ccccc32)c1 (stereo not shown) | 15.9 |
| COc1ccc(CCC(=O)O)cc1OC | 12.9 |
| CCc1ccccc1NC(=O)CN1CCN(CC(=O)NCc2ccc(Cl)cc2)CC1 | -1.79 |
| COc1ccc(CN(C(=O)/C=C/c2ccco2)C2CCS(=O)(=O)C2)cc1OC (stereo not shown) | 22.5 |
| COc1cccc(O)c1CN1CCCC(C(=O)c2sccc2C)C1 (stereo not shown) | 6.67 |
| CCOc1ccccc1OCCC(=O)OCC(=O)Nc1c(C)cc(C)cc1C | 3.68 |
| CCCC(c1nnnn1CC1CCCO1)N1CCN(c2nc3ccccc3s2)CC1 (stereo not shown) | 2.19 |
| CC1(C)Cc2c(sc3nc4n(c(=O)c23)CCC4)CO1 | 8.21 |
| O=C(O)c1cccc(NS(=O)(=O)c2cccc(C(=O)Nc3ccccc3[N+](=O)[O-])c2)c1 | 5.11 |
| CC1=C(C(=O)Nc2ccccc2)C(c2ccc(C)o2)N2C(=O)CSC2=N1 (stereo not shown) | 7.8 |
| Cc1cc([N+](=O)[O-])c(C)cc1-c1ccc(/C=N/n2cnnc2)o1 | 7.86 |
| Cc1cc(S(=O)(=O)N2CCOCC2)ccc1F | 2.03 |
| CCC(C)(C)NC(=O)C(c1ccc(F)cc1)N(Cc1ccco1)C(=O)CCC(=O)Nc1ccccn1 (stereo not shown) | -2.95 |
| COc1cc2c(cc1OC)C(COc1cc(C)cc(C)c1)N(C(C)=O)CC2 (stereo not shown) | 2.4 |
| CCOC(=O)c1ccc(N2C(=O)CC(NC3CCN(C(=O)c4cccc(Cl)c4)CC3)C2=O)cc1 (stereo not shown) | -11.4 |
| COc1cc(/C=N/NC(=S)Nc2cccnc2)cc(OC)c1O | 0.62 |
| Cc1ccc(-n2c3c(cc(C(=O)NCCCN4CCOCC4)c2=O)C(=O)CC(C)(C)C3)cc1 | 5 |
| COc1ccc(OC)c(Nc2nc(N)nc(CCl)n2)c1 | 6.57 |
| COc1cc(N)c(Cl)cc1C(=O)OCC(=O)c1ccc2c(c1)NC(=O)CO2 | 11.9 |
| CCOc1ccc(S(=O)(=O)NCCC(=O)NCC(c2ccc(OC)cc2)N2CCCC2)cc1 (stereo not shown) | 12.3 |
